Measured values reported in article PMC4336329 (PLoS ONE, 2015).
In all, about 310,000 compounds went through this assay and about 14,000 (4.5%) showed an effect of 50% or more. Effects have a minus sign here. The list shows a part of the results.

Target: human ether-à-go-go-related gene (hERG) potassium channel (human, UniProt Q12809)
Assay: primary screen, population patch clamp on CHO cells stably expressing hERG
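Further: peak tail current of the secondary pulse compared with the same well before compound.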

human ether-à-go-go-related gene (hERG) potassium channel, sequence (Q12809 whole entry, looked up): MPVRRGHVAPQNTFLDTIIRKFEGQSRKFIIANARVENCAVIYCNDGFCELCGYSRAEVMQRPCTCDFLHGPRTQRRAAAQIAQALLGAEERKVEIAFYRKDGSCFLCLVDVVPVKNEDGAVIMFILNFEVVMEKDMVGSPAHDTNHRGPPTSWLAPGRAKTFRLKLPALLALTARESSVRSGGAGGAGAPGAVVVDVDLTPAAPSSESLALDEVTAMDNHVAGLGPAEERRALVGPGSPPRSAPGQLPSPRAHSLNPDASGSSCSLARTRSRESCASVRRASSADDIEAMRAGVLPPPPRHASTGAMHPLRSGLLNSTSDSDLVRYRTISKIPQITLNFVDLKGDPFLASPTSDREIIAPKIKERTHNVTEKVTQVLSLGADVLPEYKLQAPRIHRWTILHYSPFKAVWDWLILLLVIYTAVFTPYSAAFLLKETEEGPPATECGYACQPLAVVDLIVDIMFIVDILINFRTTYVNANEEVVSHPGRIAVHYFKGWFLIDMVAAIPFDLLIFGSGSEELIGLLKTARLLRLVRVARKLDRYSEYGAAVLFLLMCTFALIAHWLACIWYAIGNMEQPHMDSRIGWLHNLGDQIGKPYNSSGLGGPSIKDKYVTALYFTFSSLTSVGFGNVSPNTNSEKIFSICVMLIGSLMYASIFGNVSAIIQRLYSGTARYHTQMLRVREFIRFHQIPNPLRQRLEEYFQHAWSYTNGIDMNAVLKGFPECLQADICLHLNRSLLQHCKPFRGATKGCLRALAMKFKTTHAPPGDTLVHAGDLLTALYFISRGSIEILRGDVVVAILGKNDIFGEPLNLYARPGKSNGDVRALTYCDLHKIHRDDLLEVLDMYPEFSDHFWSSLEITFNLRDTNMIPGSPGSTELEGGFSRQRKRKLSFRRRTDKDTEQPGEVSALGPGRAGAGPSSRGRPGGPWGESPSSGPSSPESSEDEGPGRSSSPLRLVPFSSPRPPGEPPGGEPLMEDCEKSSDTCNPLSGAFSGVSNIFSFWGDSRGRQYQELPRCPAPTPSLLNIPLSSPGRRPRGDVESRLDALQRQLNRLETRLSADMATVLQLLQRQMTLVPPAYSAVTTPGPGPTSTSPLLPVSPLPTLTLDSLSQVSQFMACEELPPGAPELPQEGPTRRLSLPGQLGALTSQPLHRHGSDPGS

Compound	hERG current change (%, negative = inhibition) at 10uM [%]
NS(=O)(=O)c1ccc(-n2ncc3c(=O)[nH]c(SCC(=O)Nc4nccs4)nc32)cc1	18.1
CN(C)C(=O)c1cc(Cl)ccc1Sc1cc(Cl)ccc1Cl	-6.03
COc1cccc(CNC(=O)C(CCSC)NS(=O)(=O)c2ccc3c(c2)oc(=O)n3C)c1 (stereo not drawn)	-3.38
Cc1cccc(C)c1NC(=O)COC(=O)Cc1ccsc1	12.8
O=[N+]([O-])c1ccc(N2CCCC2)nc1N1CCCC1	3.34
CCOC(=O)N1CCC2(CC1)C(C#N)=C(N)Oc1c2sc2nc(C)cc(C)c12	12.9
CC(Oc1cccc(F)c1)C(=O)Nc1ccc(N2CCOCC2)cc1 (stereo not drawn)	4.79
O=C(NCc1ccco1)C1CCCN1S(=O)(=O)c1ccccc1C(F)(F)F (stereo not drawn)	-3.75
Cc1cc2c(C)nc(N/N=C/c3ccc(F)cc3)nc2o1	-52.7
COc1cc(SC)ccc1C(=O)Nc1cc(C)c(OCC(=O)N2CCOCC2)c(C)c1	-18.8
Cc1ccc(OCC(=O)NNC(=O)C(C)Sc2ncnc3sc(C)c(C)c23)cc1 (stereo not drawn)	-15.2
Clc1ccc(CO/N=C2\CCCc3nonc32)cc1	-19.2
Cc1ccc(-c2cc(C(=O)N3CCCCCC3)no2)cc1	13.4
O=C(NCc1cccnc1)c1cc2nc(-c3cccs3)cc(C(F)(F)Cl)n2n1	-34.3
O=C(N/N=C/c1cccc(Cl)c1)C(c1ccncc1)N1CCOCC1 (stereo not drawn)	11.8
CC(C)(C)c1csc(NC(=O)CSc2nc3ccccc3c(=O)[nH]2)n1	-1.86
CCOc1ccc(N2C(=O)C3Sc4[nH]c(=O)sc4C(c4ccc(OC)c(OC)c4)C3C2=O)cc1 (stereo not drawn)	-1.7
COc1ccc(Cl)cc1S(=O)(=O)n1ccnc1C(C)C	1.33
Cc1cc(C(=O)Nc2nc3c(s2)CCCC3)no1	-16.8
Cc1ccc(S(=O)(=O)NCC(=O)N(CC(=O)NCC2CCCO2)Cc2ccco2)cc1 (stereo not drawn)	0.269
COc1ccc(C2CC(=O)C(C(c3ccc(O)cc3)C3C(=O)CC(c4ccc(OC)cc4)CC3=O)C(=O)C2)cc1 (stereo not drawn)	-3.5
O=C(c1cccc(-c2ccc(O)cc2)c1)N1CCOCC1	-3.36

Compound	hERG current change (%, negative = inhibition) at 10uM [%]
COc1ccc(Cl)cc1C(=O)Nc1ccc2nc3n(c(=O)c2c1)CCCC3	-43
C/C(=N\NC(=O)c1ccc(F)cc1)c1ccccn1	8.97
Cc1cccc(C)c1OCC(=O)NNC(=O)c1ccoc1C	1.26
CC1=C[C@@H]2c3cccc4[nH]cc(c34)C[C@H]2N(C)C1	5.33
CCOP(=O)(OCC)C(NC(=O)CC(C)C)C(Cl)(Cl)Cl (stereo not drawn)	7.72
Cc1ccc(N2C(=O)C(Cl)=C(N3CCCCCC3)C2=O)c(C)c1	17
O=C(c1cccc(Cl)c1)N1CCC(N2CCC(C(=O)N3CCCC3)CC2)CC1	-49.1
CC1CCN(C(=O)N[C@@H](Cc2ccccc2)C(=O)O)CC1	13.2
O=C(CSc1nnc(-c2ccc(S(=O)(=O)N3CCCC3)cc2)n1CC1CCCO1)NC1CC1 (stereo not drawn)	-9.73
O=C(O)CSc1ccc(NC(=O)Nc2ccccc2F)cc1	23
COc1ccc(N2CCN(C(=O)CN(C3CCCCC3)S(C)(=O)=O)CC2)cc1	-10.1
Cc1ccc(S(=O)(=O)c2nc(S(C)(=O)=O)sc2N2CCCCC2C)cc1 (stereo not drawn)	-15.7
CN(C(=O)c1ccccc1)c1nccnc1C#N	3.31
O=C(CCS(=O)(=O)c1ccc(Br)cc1)Nc1ccc(Cl)cc1F	11.5
C/C(=N\NC(=O)c1ccoc1C)c1ccccc1	3.88
CN(CCNC(=O)CN1CCN(Cc2ccccc2Cl)C1=O)Cc1ccccc1	-30.4
O=C(c1noc2c1CCCCC2)N1CCOCC1	10.3
Cn1c(N)c(C(=O)COC(=O)c2ccccc2C(=O)c2ccccc2)c(=O)n(C)c1=O	-12.4
CC(C)(C)C(=O)CSc1nnc(-c2cccs2)n1CC1CCCO1 (stereo not drawn)	-12.4
NC(=O)CSc1nnc2n(-c3ccccc3)c(=O)c3c4c(sc3n12)CCCCC4	-1.99
Cc1ccc(-n2nnnc2SCC(=O)Nc2cc(C)on2)c(C)c1	3.7
CCOCCCNC(=O)C(c1ccc(Cl)cc1)N1CCN(c2ccccc2)CC1 (stereo not drawn)	7.17

Compound	hERG current change (%, negative = inhibition) at 10uM [%]
O=C(OCc1cc2ccccc2[nH]c1=O)c1ccc([N+](=O)[O-])cc1	9.23
CCOc1ccccc1CN1CCN(CC2=Cc3cc(OC)ccc3OC2)CC1CCO (stereo not drawn)	-83.3
COc1ccccc1NC(=O)CN1CCC(c2nc3ccc(C)cc3[nH]2)CC1	-57.7
O=C(NNC(=O)c1cccs1)c1ccc(Br)cc1	12.1
O=C1C(Br)=Cc2cccc3cccc1c23	14.8
COc1ccc(N2CCN(C(=O)CN(C)S(=O)(=O)c3cc(C)ccc3OC)CC2)cc1	-6.91
Cc1cccc(OCC(=O)N2CCN(C(=O)CCC3CCCC3)CC2)c1	-37.3
CCN(CC)S(=O)(=O)c1cccc(C(=O)N/N=C2\CC(=O)CC(C)(C)C2)c1	20.6
COc1ccc(N2CCN(C(=O)CCc3nc(-c4ccc(C)cc4)no3)CC2)cc1	-14.1
O=C(NC1CCCC1)C(c1ccncc1)N(C(=O)c1ccco1)c1ccc(F)c(Cl)c1 (stereo not drawn)	-15.2
Clc1ccccc1Cn1nnc2c(N3CCOCC3)nc(C3CC3)nc21	8.5
COc1ccc(-c2nc(N)ncc2-c2csc(C)n2)c(O)c1OC	-1.69
COc1ccccc1/C=C1/C(=O)N(c2ccc([N+](=O)[O-])cc2)N=C1C	12.7
Cc1ccc(C(C)C)c(OCC(O)CNC2CCCC2)c1.Cl (stereo not drawn)	-51.9
CN(Cc1cccc2cnccc12)C(=O)CCc1nnc(CCc2ccccc2)o1	-44.7
O=C(CCCn1c(=O)c2ccccc2n(CC(=O)NCc2ccco2)c1=O)NCc1ccco1	1.19
COc1cccc(Nc2nnc(SCn3nnc4ccccc4c3=O)s2)c1	7.88
COc1ccc(CCNC(=O)CSC(=O)c2ccccc2)cc1OC	13.9
COCCNC(=O)Cn1nc(-c2ccccc2OC)ccc1=O	15.9
COc1ccc(OC)c(C2C(C(C)=O)=C(O)C(=O)N2CCc2ccc(OC)c(OC)c2)c1 (stereo not drawn)	-5.15
CC(Nc1nc(N2CCNCC2)nc2ccccc12)c1ccccc1 (stereo not drawn)	-66.2
Cc1cc(C)nc(/N=C(/NC(=O)Nc2cccc(Cl)c2)Nc2ccccc2)n1	17.8

Compound	hERG current change (%, negative = inhibition) at 10uM [%]
Cn1c(SCC(=O)N2CCCCC2)nc2c([nH]c3ccccc32)c1=O	-2.25
Cc1ccc(-c2ccc(/C=C(\C#N)C(N)=S)n2C)cc1	14
COc1cccc(/C=C/C(=O)OCCN2C(=O)c3ccccc3C2=O)c1	14.2
Cc1ccc(CNS(=O)(=O)c2ccc3c(c2)n(C)c(=O)n3C)cc1	8.02
CN(CC(=O)Nc1ccccc1C(=O)N1CCCC1)S(=O)(=O)c1ccc(Cl)cc1	-22.8
NS(=O)(=O)c1ccc(CCNC(=O)c2ccc(Cl)cc2[N+](=O)[O-])cc1	16.7
COc1cccc(NC(=O)N2CCCC2C(=O)NC2CCCCC2)c1 (stereo not drawn)	6.4
O=C(c1ccco1)N1CCN(Cc2cc(=O)c(OCc3ccccc3F)co2)CC1	-30.4
CC(C)CN1CCN(Cc2cnc(N3CCOCC3)s2)CC1CCO (stereo not drawn)	-4.34
CN(C)C(=O)c1ccc(NC(=O)COC(=O)c2cc3c(s2)CCCCC3)cc1	-14.5
CCOC(=O)c1ccc(NC(=S)Nc2ccccc2)cc1	-4.5
O=C(c1cc(-c2ccc(Cl)cc2)nc2ccccc12)N1CCC1	-59.7
CSc1ncccc1C(=O)NCC(=O)Nc1ccc(F)c(F)c1	15.7
COc1ccccc1-c1csc(Cc2nnc3n2CCCCC3)n1	-15.2
CCOc1ccc2ccccc2c1C(=O)NCC(c1ccc(N(C)C)cc1)N(C)C (stereo not drawn)	-27.1
Cc1cccc(OCC(=O)Nc2ccc(S(=O)(=O)N3CCN(C)CC3)cc2)c1	-9.66
COC(=O)c1cc2ccsc2n1Cc1cccc(F)c1	-0.987
C/C(=N\OCC(=O)OCC(=O)Nc1cc(S(C)(=O)=O)ccc1Cl)c1ccc2c(c1)OCO2	-2.73
Cc1cc2n(n1)C(c1ccccc1)CC(c1ccc(Br)cc1)=N2 (stereo not drawn)	-1.85
NC(=O)CC(NC(=O)c1ccccc1)c1ccc(NC2CCC2)c([N+](=O)[O-])c1 (stereo not drawn)	-38.7
CCOC(=O)c1ccc(N=C(C)c2c(O)[nH]c(=O)[nH]c2=O)cc1	10.8
